Assay results: PubChem BioAssay AID624417 (National Center for Advancing Translational Sciences (NCATS), 2012)
Among all 410,000 compounds or so, about 6,400 (1.6%) were called active. Inconclusive means that the source gave no clear call. Such entries were picked first, then a sample of the others. Calls come from the whole dose curve; as a rule, active = well fitted inhibition curve with a large enough effect; inconclusive = small, poorly fitted or top-dose-only effect; inactive = no such curve, though single readings can be large or run the other way. Potencies of inconclusive entries are left out as doubtful fits.

target: Glucagon-like peptide 1 receptor (Homo sapiens) (UniProt P43220); assay: qHTS of GLP-1 Receptor Inverse Agonists (Inhibition Mode); conditions: HEK293 GLP-1R CRE-luciferase, luminescence, 24 h, GLP-1R form is constitutively active; series mostly up to 38.3 µM; note: nearly all actives have a fitted effect of over 55% in size
How it was run: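 Luminescence readout: a drop in cAMP-driven luciferase signal flags inverse agonism at a constitutively active GLP-1R stably expressed in HEK293. Compound exposure lasted 24 hr at 37 deg C, 5% CO2.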
Potency is the fitted concentration of half-maximal effect; tags give direction and shape of the fitted curve.

Sequence of UniProt P43220 (P43220 whole entry, looked up): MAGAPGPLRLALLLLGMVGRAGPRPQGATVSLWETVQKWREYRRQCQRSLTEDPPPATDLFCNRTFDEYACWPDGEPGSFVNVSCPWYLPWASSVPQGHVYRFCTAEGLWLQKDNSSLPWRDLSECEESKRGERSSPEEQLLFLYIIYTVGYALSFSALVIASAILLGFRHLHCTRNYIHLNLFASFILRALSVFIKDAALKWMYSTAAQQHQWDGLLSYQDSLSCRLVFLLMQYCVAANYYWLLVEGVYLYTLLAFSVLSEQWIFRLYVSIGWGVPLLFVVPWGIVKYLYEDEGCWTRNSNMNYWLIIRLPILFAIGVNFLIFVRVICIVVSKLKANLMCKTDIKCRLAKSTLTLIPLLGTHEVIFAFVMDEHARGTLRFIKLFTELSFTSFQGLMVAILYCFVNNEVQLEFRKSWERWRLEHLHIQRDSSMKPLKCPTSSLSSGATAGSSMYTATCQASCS

| Compound | Potency |
| --- | --- |
| Cc1ccc(NC(=O)C2CC2c2ccccc2)cc1 (stereo not given) | inconclusive [inhibitor, single point] |
| CN(CCc1ccccn1)C(=S)Nc1ccc(Cl)c(Cl)c1 | inconclusive [inhibitor, single point] |
| c1ccc(OCCSc2nnnn2-c2ccccc2)cc1 | inconclusive [inhibitor, single point] |
| Oc1ccc(Nc2nc(-c3ccccc3F)nc3ccccc23)cc1 | inconclusive [inhibitor, single point] |
| CN(Cc1cccc([N+](=O)[O-])c1)Cc1cccc2ccccc12 | inconclusive [inhibitor, partial curve] |
| COC[C@@H]1CCCN1c1ccc2c(c1)O[C@H](COCc1ccccc1)CN([C@H](C)c1ccccc1)S2(=O)=O | inconclusive [inhibitor, single point] |
| Clc1ccc(CSc2nnc(-c3sccc3-n3cccc3)o2)cc1 | inconclusive [inhibitor, partial curve, poor fit] |
| Cc1nc2nc(C)c(CCC(=O)NCCCN3CCN(c4cccc(Cl)c4)CC3)c(C)n2n1 | inconclusive [inhibitor, single point] |
| CCC(=O)c1ccc(N2CCN(C(=O)Cc3ccccc3)CC2)c(F)c1 | inconclusive [inhibitor, partial curve] |
| N#Cc1c(NC(=O)/C=C/C(=O)O)sc2c1CCN(Cc1ccccc1)C2 | inactive |
| COc1cccc(C=O)c1OCCCOc1cccc2cccnc12 | inconclusive [inhibitor, single point] |
| CCOC(=O)[C@]12CCC=C1N(Cc1ccc(Cl)cc1Cl)C(=O)[C@H](CC(=O)NCCCOC)C2 | inconclusive [inhibitor, single point] |
| CC(C)(C)n1nc2c(c1NC(=O)c1ccc(Cl)c([N+](=O)[O-])c1)CS(=O)(=O)C2 | inconclusive [inhibitor, single point] |
| CN(CC1CCCN(CCc2cccc(C(F)(F)F)c2)C1)C(=O)c1ccco1 (stereo not given) | inconclusive [inhibitor, partial curve, poor fit] |
| CCc1ccc(OCc2nc(-c3ccccn3)no2)c(Br)c1 | inconclusive [inhibitor, partial curve, poor fit] |
| O=C(NCc1ccc(F)c(F)c1)c1ccc(-c2ccc(F)c(F)c2)c2ccoc12 | inconclusive [inhibitor, partial curve] |
| O=C(CCN1C(=O)c2ccccc2C1=O)Nc1sc2c(c1C(=O)NCc1ccco1)CCCC2 | inactive |
| O=C(Nc1ccc(C(F)(F)F)cc1)C1CC(=O)N(c2ccc3c(c2)OCCO3)C1 (stereo not given) | inconclusive [inhibitor, partial curve, poor fit] |
| CCN(CC)C(=O)C1=C(C)N(Cc2ccc(F)cc2)C(=O)C(CC(=O)NCc2cccc3ccccc23)C1 (stereo not given) | inconclusive [inhibitor, single point] |
| NCCc1nc(-c2ccccc2)cs1 | inconclusive [inhibitor, single point] |

| Compound | Potency |
| --- | --- |
| Cc1cc(NC(=S)N(Cc2ccc(Br)cc2)Cc2ccc(C(=O)O)cc2)ccc1Cl | inconclusive [inhibitor, partial curve, poor fit] |
| CN(CCOc1ccccc1)C(=O)c1ccc(Cl)c(S(=O)(=O)N2CCCCC2)c1 | inconclusive [inhibitor, single point] |
| Cc1cnc(C(=O)OC(C(=O)Nc2cc(C(F)(F)F)ccc2Cl)c2ccccc2)cn1 (stereo not given) | inconclusive [inhibitor, single point] |
| Cc1cc(C)n(-c2nc(NCCO)c3c4c(sc3n2)CCCC4)n1 | active: 4.47 µM |
| CCOC(=O)C(C)(C)N(Cc1cccc(C)c1)S(=O)(=O)c1ccc(Cl)c([N+](=O)[O-])c1 | inconclusive [inhibitor, single point] |
| CC(C)Oc1cccc(C(=O)NC(=S)Nc2ccc(Cl)c(C(=O)O)c2)c1 | inactive |
| O=C1/C(=C\c2ccc3ccccc3c2)CCCc2ccccc21 | inconclusive [inhibitor, partial curve, poor fit] |
| O=C(Nc1ccccc1-c1ccccc1)c1cccs1 | inconclusive [inhibitor, full curve, poor fit] |
| CCCCC1(C)NC(=O)c2c(C)sc(C(=O)OCC)c2N1 (stereo not given) | inconclusive [inhibitor, single point] |
| COC(=O)c1ccc(NC(=O)c2nc(S(=O)(=O)Cc3cccc(C)c3)ncc2Cl)cc1 | inconclusive [inhibitor, single point] |
| O=C(Nc1ccc(SC(F)F)cc1)c1ccc(F)cc1 | inconclusive [inhibitor, single point] |
| CCC(=O)Nc1nonc1-c1nc2ccccc2n1N(C(=O)CC)C(=O)CC | inconclusive [inhibitor, single point] |
| Cc1ccc(-c2nnn(CC(=O)N(Cc3ccco3)C(C(=O)NC(C)(C)C)c3ccc(C)o3)n2)o1 (stereo not given) | active: 1.26 µM |
| Cc1ccc(C(=O)c2ccccc2C(=O)OCC(=O)NCCc2ccc(Cl)cc2Cl)cc1 | inconclusive [inhibitor, single point] |
| CC(=O)COc1coc(CN2CCN(c3ccc(F)cc3)CC2)cc1=O | inactive |
| CC(NCc1ccccc1O)C12CC3CC(CC(C3)C1)C2 (stereo not given) | inconclusive [inhibitor, partial curve, poor fit] |
| Cc1cccc(C)c1NC(=O)CN(C)C(=O)c1ccccc1Sc1ccccc1C#N | inconclusive [inhibitor, single point] |
| CC(C)c1ccc(C(=O)Nc2cccc3cccnc23)cc1 | inactive |
| CCc1nnc(NS(=O)(=O)c2ccc(NC(=S)NC(=O)c3ccc(Br)cc3)cc2)s1 | inactive |
| CC(=O)Nc1ccc(NC(=O)C2CCCCN2S(=O)(=O)c2ccc(C(C)(C)C)cc2)cc1 (stereo not given) | inconclusive [inhibitor, partial curve] |
